Test results taken from the supplement of paper PMC4967469.

Tests used:
Assay in all cases: Viability of human cancer cell lines after 72 h of drug (GDSC screen)
Bryostatin 1 = compound: CCC/C=C/C=C/C(=O)O[C@H]1/C(=C/C(=O)OC)C[C@H]2C[C@H]([C@@H](C)O)OC(=O)C[C@H](O)C[C@@H]3C[C@H](OC(C)=O)C(C)(C)[C@](O)(C[C@@H]4C/C(=C/C(=O)OC)C[C@H](/C=C/C(C)(C)[C@]1(O)O2)O4)O3 [Bryostatin 1]; settings: top dose 0.008 µM; top dose inferred
Procedure: (§1)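 Human cancer cell lines in 384-well plates, medium with 10% serum, drug for 72 h over a 256-fold dose range (nine 2-fold or five 4-fold steps up to the top dose). Adherent lines were fixed and stained with the nucleic acid dye Syto60, suspension lines read with resazurin; signal relative to control wells, capped at 0 and 100%. One two-parameter sigmoid per drug and line, fitted in a mixed model over all curves with the slope shared within a line.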

Lenalidomide = compound: Nc1cccc2c1CN(C1CCC(=O)NC1=O)C2=O [Lenalidomide]; settings: top dose 5 µM; top dose inferred
Procedure: as §1

GW-2580 = compound: COc1ccc(COc2ccc(Cc3cnc(N)nc3N)cc2OC)cc1 [GW-2580]; settings: top dose 20 µM; top dose inferred
Procedure: as §1

SGC0946 = compound: CC(C)N(CCCNC(=O)Nc1ccc(C(C)(C)C)cc1)C[C@H]1O[C@@H](n2cc(Br)c3c(N)ncnc32)[C@H](O)[C@@H]1O [SGC0946]; settings: top dose 0.5 µM; top dose inferred
Procedure: as §1

| Cell Line | AUC (Bryostatin 1) | IC50 (Bryostatin 1) [µM] | AUC (Lenalidomide) | IC50 (Lenalidomide) [µM] | AUC (GW-2580) | IC50 (GW-2580) [µM] | AUC (SGC0946) | IC50 (SGC0946) [µM] |
| --- | --- | --- | --- | --- | --- | --- | --- | --- |
| SNB75 (glioma, adherent) | 0.948 | > 0.008 | 0.976 | > 5 | 0.979 | > 20 | 0.976 | > 0.5 |
| SNG-M (endometrium, adherent) | 0.985 | > 0.008 | 0.949 | > 5 | 0.958 | > 20 | 0.984 | > 0.5 |
| SNU-182 (liver, adherent) | 0.971 | > 0.008 | 0.986 | > 5 | 0.976 | > 20 | 0.979 | > 0.5 |
| SNU-387 (liver, adherent) | 0.978 | > 0.008 | 0.983 | > 5 | 0.961 | > 20 | 0.959 | > 0.5 |
| SNU-423 (liver, adherent) | 0.971 | > 0.008 | 0.983 | > 5 | 0.947 | > 20 | 0.981 | > 0.5 |
| SNU-449 (liver, adherent) | 0.964 | > 0.008 | 0.986 | > 5 | 0.982 | > 20 | 0.985 | > 0.5 |
| SNU-C1 (large intestine, suspension) | 0.973 | > 0.008 | 0.98 | > 5 | 0.977 | > 20 | 0.976 | > 0.5 |
| SU8686 (pancreas, adherent) | 0.986 | > 0.008 | 0.983 | > 5 | 0.979 | > 20 | 0.948 | > 0.5 |
| SU-DHL-5 (B-cell lymphoma, suspension) | 0.99 | > 0.008 | 0.994 | > 5 | 0.986 | > 20 | 0.994 | > 0.5 |
| SUIT-2 (pancreas, adherent) | 0.974 | > 0.008 | 0.985 | > 5 | 0.986 | > 20 | 0.985 | > 0.5 |
| SUP-HD1 (Hodgkin lymphoma, suspension) | 0.988 | > 0.008 | 0.982 | > 5 | 0.985 | > 20 | 0.986 | > 0.5 |
| SW13 (adrenal gland, adherent) | 0.973 | > 0.008 | 0.985 | > 5 | 0.987 | > 20 | 0.986 | > 0.5 |
| SW48 (large intestine, adherent) | 0.976 | > 0.008 | 0.985 | > 5 | 0.975 | > 20 | 0.984 | > 0.5 |
| SW626 (ovary, adherent) | 0.953 | > 0.008 | 0.983 | > 5 | 0.965 | > 20 | 0.981 | > 0.5 |
| SW756 (cervix, adherent) | 0.942 | > 0.008 | 0.978 | > 5 | 0.977 | > 20 | 0.982 | > 0.5 |
| SW780 (bladder, adherent) | 0.986 | > 0.008 | 0.986 | > 5 | 0.985 | > 20 | 0.982 | > 0.5 |
| SW948 (large intestine, adherent) | 0.951 | > 0.008 | 0.973 | > 5 | 0.972 | > 20 | 0.98 | > 0.5 |
| SW962 (urogenital system, adherent) | 0.893 | > 0.008 | 0.977 | > 5 | 0.982 | > 20 | 0.976 | > 0.5 |
| SW982 (soft tissue, adherent) | 0.979 | > 0.008 | 0.983 | > 5 | 0.984 | > 20 | 0.983 | > 0.5 |
| SW1271 (small cell lung carcinoma, adherent) | 0.95 | > 0.008 | 0.984 | > 5 | 0.978 | > 20 | 0.98 | > 0.5 |
| SW1417 (large intestine, adherent) | 0.985 | > 0.008 | 0.986 | > 5 | 0.982 | > 20 | 0.985 | > 0.5 |

| Cell Line | AUC (Bryostatin 1) | IC50 (Bryostatin 1) [µM] | AUC (Lenalidomide) | IC50 (Lenalidomide) [µM] | AUC (GW-2580) | IC50 (GW-2580) [µM] | AUC (SGC0946) | IC50 (SGC0946) [µM] |
| --- | --- | --- | --- | --- | --- | --- | --- | --- |
| SW1573 (lung adenocarcinoma, adherent) | 0.927 | > 0.008 | 0.978 | > 5 | 0.981 | > 20 | 0.975 | > 0.5 |
| SW1710 (bladder, adherent) | 0.985 | > 0.008 | 0.985 | > 5 | 0.983 | > 20 | 0.983 | > 0.5 |
| SW1783 (glioma, adherent) | 0.971 | > 0.008 | 0.991 | > 5 | 0.974 | > 20 | 0.99 | > 0.5 |
| SW1990 (pancreas, adherent) | 0.977 | > 0.008 | 0.925 | > 5 | 0.98 | > 20 | 0.983 | > 0.5 |
| Saos-2 (osteosarcoma, adherent) | 0.943 | > 0.008 | 0.981 | > 5 | 0.979 | > 20 | 0.978 | > 0.5 |
| SiHa (cervix, adherent) | 0.915 | > 0.008 | 0.987 | > 5 | 0.983 | > 20 | 0.985 | > 0.5 |
| T47D (breast, adherent) | 0.929 | > 0.008 | 0.977 | > 5 | 0.977 | > 20 | 0.974 | > 0.5 |
| T84 (large intestine, adherent) | 0.986 | > 0.008 | 0.989 | > 5 | 0.978 | > 20 | 0.975 | > 0.5 |
| T98G (glioma, adherent) | 0.98 | > 0.008 | 0.99 | > 5 | 0.99 | > 20 | 0.989 | > 0.5 |
| T-T (oesophagus, adherent) | 0.958 | > 0.008 | 0.963 | > 5 | 0.976 | > 20 | 0.974 | > 0.5 |
| TE-1 (oesophagus, adherent) | 0.981 | > 0.008 | 0.914 | > 5 | 0.967 | > 20 | 0.962 | > 0.5 |
| TE-6 (oesophagus, adherent) | 0.986 | > 0.008 | 0.986 | > 5 | 0.986 | > 20 | 0.984 | > 0.5 |
| TE-8 (oesophagus, adherent) | 0.943 | > 0.008 | 0.985 | > 5 | 0.985 | > 20 | 0.984 | > 0.5 |
| TE-9 (oesophagus, adherent) | 0.969 | > 0.008 | 0.987 | > 5 | 0.985 | > 20 | 0.985 | > 0.5 |
| TE-12 (oesophagus, suspension) | 0.953 | > 0.008 | 0.98 | > 5 | 0.957 | > 20 | 0.978 | > 0.5 |
| TE-15 (oesophagus, suspension) | 0.947 | > 0.008 | 0.985 | > 5 | 0.975 | > 20 | 0.983 | > 0.5 |
| TGBC1TKB (biliary tract, adherent) | 0.988 | > 0.008 | 0.986 | > 5 | 0.987 | > 20 | 0.988 | > 0.5 |
| TGBC11TKB (stomach, adherent) | 0.991 | > 0.008 | 0.992 | > 5 | 0.99 | > 20 | 0.99 | > 0.5 |
| TGW (neuroblastoma, adherent) | 0.992 | > 0.008 | 0.992 | > 5 | 0.99 | > 20 | 0.98 | > 0.5 |
| TK10 (kidney, adherent) | 0.937 | > 0.008 | 0.968 | > 5 | 0.982 | > 20 | 0.979 | > 0.5 |
| TK (B-cell lymphoma, suspension) | 0.983 | > 0.008 | 0.989 | > 5 | 0.987 | > 20 | 0.985 | > 0.5 |

| Cell Line | AUC (Bryostatin 1) | IC50 (Bryostatin 1) [µM] | AUC (Lenalidomide) | IC50 (Lenalidomide) [µM] | AUC (GW-2580) | IC50 (GW-2580) [µM] | AUC (SGC0946) | IC50 (SGC0946) [µM] |
| --- | --- | --- | --- | --- | --- | --- | --- | --- |
| TMK-1 (stomach, adherent) | 0.878 | > 0.008 | 0.986 | > 5 | 0.964 | > 20 | 0.984 | > 0.5 |
| TOV-21G (ovary, adherent) | 0.974 | > 0.008 | 0.951 | > 5 | 0.975 | > 20 | 0.952 | > 0.5 |
| TOV-112D (ovary, adherent) | 0.983 | > 0.008 | 0.985 | > 5 | 0.981 | > 20 | 0.984 | > 0.5 |
| TT2609-C02 (thyroid, adherent) | 0.982 | > 0.008 | 0.985 | > 5 | 0.981 | > 20 | 0.985 | > 0.5 |
| TT (thyroid, adherent) | 0.878 | > 0.008 | 0.967 | > 5 | 0.977 | > 20 | 0.98 | > 0.5 |
| TYK-nu (ovary, adherent) | 0.983 | > 0.008 | 0.985 | > 5 | 0.977 | > 20 | 0.983 | > 0.5 |
| U251 (glioma, adherent) | 0.971 | > 0.008 | 0.987 | > 5 | 0.983 | > 20 | 0.987 | > 0.5 |
| U-2-OS (osteosarcoma, adherent) | 0.984 | > 0.008 | 0.977 | > 5 | 0.985 | > 20 | 0.984 | > 0.5 |
| U-87-MG (glioma, adherent) | 0.985 | > 0.008 | 0.985 | > 5 | 0.977 | > 20 | 0.983 | > 0.5 |
| U-118-MG (glioma, adherent) | 0.985 | > 0.008 | 0.982 | > 5 | 0.971 | > 20 | 0.984 | > 0.5 |
| U-698-M (B-cell leukaemia, suspension) | 0.959 | > 0.008 | 0.979 | > 5 | 0.987 | > 20 | 0.986 | > 0.5 |
| UACC-62 (melanoma, adherent) | 0.967 | > 0.008 | 0.983 | > 5 | 0.982 | > 20 | 0.984 | > 0.5 |
| UACC-893 (breast, adherent) | 0.977 | > 0.008 | 0.96 | > 5 | 0.977 | > 20 | 0.98 | > 0.5 |
| UM-UC-3 (bladder, adherent) | 0.957 | > 0.008 | 0.86 | 3.79 | 0.979 | > 20 | 0.987 | > 0.5 |
| UMC-11 (lung carcinoid, adherent) | 0.987 | > 0.008 | 0.991 | > 5 | 0.976 | > 20 | 0.99 | > 0.5 |
| VAL (B-cell lymphoma, suspension) | 0.98 | > 0.008 | 0.986 | > 5 | 0.979 | > 20 | 0.985 | > 0.5 |
| VMRC-MELG (melanoma, adherent) | 0.984 | > 0.008 | 0.987 | > 5 | 0.982 | > 20 | 0.986 | > 0.5 |
| VMRC-RCZ (kidney, adherent) | 0.966 | > 0.008 | 0.982 | > 5 | 0.962 | > 20 | 0.981 | > 0.5 |
| WM35 (melanoma, adherent) | 0.976 | > 0.008 | 0.977 | > 5 | 0.985 | > 20 | 0.985 | > 0.5 |
| WM278 (melanoma, adherent) | 0.929 | > 0.008 | 0.975 | > 5 | 0.976 | > 20 | 0.934 | > 0.5 |

IC50 is the fitted dose that halves viability relative to control wells, and lower means more sensitive; fits outside the tested doses are given as limits. AUC sums up the same curve from the lowest dose to the 256-fold higher top dose; it is 1 without any effect and falls as sensitivity rises. Any top dose called inferred was derived from the fitted curves, not read from the paper.
